{"source": "PubChem BioAssay AID1745845", "about": "(National Center for Advancing Translational Sciences (NCATS), 2022)", "note": "Several values for one entry are separate records, joined by “and”; a condition that tells them apart may be missing. Equal entries are not always repeated. The whole screen tested about 360,000 compounds, of which about 2,600 (0.72%) were called active. Inconclusive results, whose numbers are uncertain, are shown with a selection of clear calls. Calls follow the shape of the dose curve; as a rule, active = well fitted inhibition curve with a large enough effect; inconclusive = small, poorly fitted or top-dose-only effect; inactive = no such curve, though single readings can be large or run the other way. Potencies beside an inconclusive call are fits to weak or partial responses and may not hold up. % is scaled to controls: 0 for no effect and ±100 for the full control effect; potency is read from the fitted curve at half-maximal effect; tags tell the direction and shape of the fitted curve."}
{"experiment": "Primary qHTS for Inhibitors of ATXN expression; also: nearly all actives have a fitted effect of over 55% in size", "details": "HEK-293 ATXN2-luciferase reporter, luminescence, 24 h; activity change, negative = inhibition: at 57 µM (top of the series)", "how_it_was_run": "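qHTS (up to 57 uM final) was run with 24 h compound exposure of reporter cells at 37 °C. Each well was multiplexed: SteadyGlo luminescence measured ATXN2-luciferase expression after a fluorogenic Gly-Phe-AFC viability readout (25 uM final).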"}
{"smiles": "CCN(C(=O)Cn1nnc2sc3c(c2c1=O)CCC(C(C)(C)C)C3)c1cccc(C)c1", "note": "(stereo not drawn)", "Potency": "inconclusive: 3.98 µM [inhibitor, single point]"}
{"smiles": "CCN(CCCNC(=O)C1CCC(=O)N1Cc1ccc(C)cc1)c1cccc(C)c1", "note": "(stereo not drawn)", "activity change, negative = inhibition": "inactive: -9.2%"}
{"smiles": "CCNC(=O)N(CC)C[C@H]1N[C@@](Cc2ccccc2)(C(=O)OC)[C@H]2C(=O)N(Cc3ccccc3)C(=O)[C@@H]12", "activity change, negative = inhibition": "inactive: 1.18%"}
{"smiles": "CCCCn1c(=N)n(CC(O)COc2cccc(C)c2)c2ccccc21", "note": "(stereo not drawn)", "Potency": "inconclusive: 25.1 µM [inhibitor, partial curve]"}
{"smiles": "Cn1c(=O)c2[nH]c(CCCc3ccc([N+](=O)[O-])cc3)nc2n(C)c1=O", "Potency": "inconclusive: 15.8 µM [inhibitor, single point]"}
{"smiles": "O=C(Nc1cccc(S(=O)(=O)N2CCOCC2)c1)C1CCCCN1S(=O)(=O)c1ccccc1", "note": "(stereo not drawn)", "activity change, negative = inhibition": "inactive: -4.59%"}
{"smiles": "Cc1cccc(C)c1NC(=O)c1cccc2c1C(=O)N(C1CCCCC1)C2", "activity change, negative = inhibition": "inactive: -30.1%"}
{"smiles": "CC(=O)c1c(C)[nH]c(C(=O)Nc2ccc(C)c(S(=O)(=O)Nc3ccc(C)cc3C)c2)c1C", "Potency": "inconclusive: 28.2 µM [inhibitor, single point]"}
{"smiles": "CC1Cc2ccccc2N1C(=S)NC(=O)c1cccc(Br)c1", "note": "(stereo not drawn)", "Potency": "inconclusive: 28.2 µM [inhibitor, single point]"}
{"smiles": "C#CC[N+](C)(C)CCCCCCCCCCCC", "Potency": "inconclusive: 28.2 µM [inhibitor, single point]"}
{"smiles": "COc1ccc(-c2nc(C)c(CCNS(=O)(=O)c3cc(Cl)ccc3Cl)s2)cc1", "Potency": "inconclusive: 39.8 µM [inhibitor, single point]"}
{"smiles": "COc1cccc(-c2nc(C(=O)NCCCN3CCOCC3)cc3c2[nH]c2ccccc23)c1", "Potency": "inconclusive: 31.6 µM [inhibitor, single point]"}
{"smiles": "CCc1nn2c(=O)cc(COC(=O)COc3ccc(OC)cc3)nc2s1", "activity change, negative = inhibition": "inactive: 5.66%"}
{"smiles": "O=c1[nH]c(NC2CCN(S(=O)(=O)c3ccccc3C(F)(F)F)CC2)nc2c1CCCC2", "Potency": "inconclusive: 42.3 µM [inhibitor, single point]"}
{"smiles": "Cc1ccc(C)c(OCCC(=O)OCC(=O)NCc2ccc(F)cc2)c1", "activity change, negative = inhibition": "inactive: 17.7%"}
{"smiles": "NC(=S)N1OC[C@@H]2COc3ccc4ccccc4c3[C@@H]21", "Potency": "active: 14.1 µM"}
{"smiles": "O=C(Nc1ccc(N2CCN(C(=O)c3ccco3)CC2)cc1)c1ccc2c(c1)OCO2", "Potency": "inconclusive: 15.8 µM [inhibitor, partial curve, poor fit]"}
{"smiles": "CCN(CC(=O)Nc1cc(S(=O)(=O)N2CCCCC2)ccc1Cl)Cc1ccccc1", "activity change, negative = inhibition": "inactive: -20.8%"}
{"smiles": "COc1cccc(Cn2cnc(-c3ccccc3OC)c2C2CC2)c1", "Potency": "inconclusive: 6.31 µM [inhibitor, partial curve, poor fit]"}
{"smiles": "CCN1CCN(c2c(Cl)cccc2NC(=O)c2ccc3nsnc3c2)CC1", "Potency": "inconclusive: 39.8 µM [inhibitor, single point]"}
{"smiles": "O=C(Nc1ccc(CSc2ccccc2)cc1)c1ccc(CN2CCOCC2)cc1", "Potency": "inconclusive: 10 µM [inhibitor, partial curve]"}
{"smiles": "Oc1ccc(Cl)cc1Cc1cc(Cl)ccc1O", "Potency": "active: 28.2 µM and inconclusive: 28.2 µM [inhibitor, single point]"}
{"smiles": "CC1(C)C(=O)NCCN1C(=O)CC1C(=O)NCCN1CC(c1ccccc1)c1ccccc1", "note": "(stereo not drawn)", "Potency": "inconclusive: 8.44 µM [inhibitor, single point]"}
{"smiles": "CCn1nnc2c(N3CCOCC3)nc(-c3ccc(NC(=O)Nc4ccc(C(=O)N5CCN(C)CC5)cc4)cc3)nc21", "Potency": "inconclusive: 10.9 µM [inhibitor, partial curve]"}
{"smiles": "O=C(O)c1cccc(C(=O)Nc2cccc(NC(=O)C3CCCO3)c2)c1", "note": "(stereo not drawn)", "Potency": "inconclusive: 2.82 µM [inhibitor, single point]"}
{"smiles": "CCN(CC)CCOc1ccc2c(c1)C(=NO)c1cc(OCCN(CC)CC)ccc1-2", "Potency": "active: 11.2 µM"}
{"smiles": "Cc1cc(N2CCOCC2)ccc1/C=C\\[N+](=O)[O-]", "Potency": "inconclusive: 37.7 µM [inhibitor, single point]"}
{"smiles": "CC(/C=C/c1ccc2c(c1)OCO2)=N\\NC(=O)c1cccc([N+](=O)[O-])c1", "Potency": "inconclusive: 28.2 µM [inhibitor, single point]"}
{"smiles": "CCc1ccc(NC(=O)CSc2nc(=O)n(Cc3ccccn3)c3c2CCC3)cc1", "Potency": "inconclusive: 28.2 µM [inhibitor, partial curve, poor fit]"}
{"smiles": "COc1ccc(/C=C/C(=O)c2ccccc2)cc1COc1ccc(F)cc1", "Potency": "inconclusive: 25.1 µM [inhibitor, single point]"}
{"smiles": "CCOc1ccc(-c2cc(CCCC(=O)Nc3cc(OC)ccc3OC)no2)cc1", "Potency": "inconclusive: 3.55 µM [inhibitor, partial curve, poor fit]"}
{"smiles": "CCCn1c(=O)c2[nH]c(-c3cnn(Cc4cccc(C(F)(F)F)c4)c3)nc2n(CC)c1=O", "Potency": "inconclusive: 7.69 µM [inhibitor, partial curve, poor fit]"}
{"smiles": "O=C(NC(c1ccc(-c2ccccc2)cc1)c1cnccn1)C1CCN(Cc2cccc(C(F)(F)F)c2)CC1", "note": "(stereo not drawn)", "Potency": "inconclusive: 39.8 µM [inhibitor, single point]"}
{"smiles": "O=C(Cc1ccc([N+](=O)[O-])cc1)Nc1ccc(Br)cn1", "Potency": "inconclusive: 13.4 µM [inhibitor, partial curve, poor fit]"}
{"smiles": "COc1ccc(N2CCN(Cc3nc(N)nc(Nc4ccc(C)c(Cl)c4)n3)CC2)cc1", "activity change, negative = inhibition": "inactive: -0.132%"}
{"smiles": "COc1cc(Cl)c(S(=O)(=O)NCCc2c(C)[nH]c3c(C)cccc23)cc1Cl", "Potency": "inconclusive: 35.5 µM [inhibitor, single point]"}
{"smiles": "Cc1ccc(CN2CCC(c3nc4ccc(Cl)cc4[nH]3)CC2)cc1", "Potency": "inconclusive: 28.2 µM [inhibitor, partial curve]"}
{"smiles": "CCN1CCCC1CNS(=O)(=O)c1ccc(Br)cc1", "note": "(stereo not drawn)", "Potency": "inconclusive: 20 µM [inhibitor, partial curve, poor fit]"}
{"smiles": "COc1cc(/C=N/N=C(N)N)ccc1OCc1ccccc1Cl", "Potency": "inconclusive: 28.2 µM [inhibitor, single point]"}
{"smiles": "CC1CCN(S(=O)(=O)c2ccc3c(c2)N(CC(=O)NC(C)c2ccccc2)C(=O)CS3)CC1", "note": "(stereo not drawn)", "activity change, negative = inhibition": "inactive: 12.2%"}
{"smiles": "COc1ccccc1C(=O)NCCn1cc(SCC(=O)Nc2ccccc2F)c2ccccc21", "Potency": "inconclusive: 12.6 µM [inhibitor, partial curve, poor fit]"}
{"smiles": "COc1ccc(CNc2ncc(-c3ccccc3)n2C)c2ccccc12", "Potency": "inconclusive: 31.6 µM [inhibitor, single point]"}
{"smiles": "O=C(COc1coc(CN2CCN(c3cccc(Cl)c3)CC2)cc1=O)NC1CCCC1", "activity change, negative = inhibition": "inactive: 1.25%"}
{"smiles": "CN(C)c1ncnc2c1ncn2[C@H]1CN(Cc2ccco2)C[C@@H](CO)O1", "activity change, negative = inhibition": "inactive: -4.12%"}
{"smiles": "CC(=O)c1ccc(-c2cnc3c(NC=O)cc(-c4ccccc4Oc4ccccc4)cn23)cc1", "Potency": "inconclusive: 12.6 µM [inhibitor, partial curve]"}
{"smiles": "CC(C)(C)c1ccc(/C=C/C(=O)c2ccc(NC3=NCCCS3)cc2)cc1", "Potency": "inconclusive: 22.4 µM [inhibitor, partial curve, poor fit]"}
{"smiles": "CCOc1ccc(NC(=O)Cn2ncc3c2-c2cc(C)ccc2OC3)cc1", "activity change, negative = inhibition": "inactive: 2.22%"}
{"smiles": "CCOCCc1nn2c(=O)cc(COC(=O)c3ccccc3NC(=O)C3CCCCC3)nc2s1", "activity change, negative = inhibition": "inactive: 10.4%"}
{"smiles": "COc1ccccc1CNc1nc(NCC2CC2)nc2ccsc12", "Potency": "inconclusive: 15.8 µM [inhibitor, partial curve]"}
{"smiles": "Fc1ccc(CNc2nc(-c3cccnc3)nc3ccccc23)cc1", "Potency": "inconclusive: 39.8 µM [inhibitor, single point]"}
{"smiles": "O=c1c2c3c(sc2n(CCN2CCCCC2)c(=O)n1Cc1ccco1)CCCCC3", "Potency": "inconclusive: 39.8 µM [inhibitor, single point]"}
{"smiles": "C[C@H](O)C#Cc1cnc2c(c1)C(=O)N([C@H](C)CO)C[C@@H](C)[C@@H](CN(C)Cc1ccc(-c3ccccc3)cc1)O2", "Potency": "inconclusive: 15.8 µM [inhibitor, partial curve, poor fit]"}
{"smiles": "COc1ccc(/C=C/c2cc(-c3ccc(C)cc3)o[n+]2C)cc1", "Potency": "inconclusive: 10 µM [inhibitor, partial curve]"}
{"smiles": "CCc1cncnc1N1CCN(Cc2nc3ccc(C(F)(F)F)cc3[nH]2)CC1", "Potency": "inconclusive: 24.3 µM [inhibitor, partial curve]"}
{"smiles": "Cc1ccccc1/C=C/c1cc[n+](C)cc1", "activity change, negative = inhibition": "inactive: 31.1%"}
{"smiles": "CCCCc1ccc(NC(=O)c2ccc(N(C)S(C)(=O)=O)cc2)cc1", "Potency": "inconclusive: 0.501 µM [inhibitor, partial curve, poor fit]"}
{"smiles": "O=C(c1cccc(C(F)(F)F)c1)C1CCCN(Cc2cccn2-c2ncccn2)C1", "note": "(stereo not drawn)", "Potency": "inconclusive: 20 µM [inhibitor, partial curve]"}
{"smiles": "Cc1ccc(CS(=O)(=O)c2ncc(Cl)c(C(=O)Nc3nc4ccc(C)cc4s3)n2)cc1", "Potency": "inconclusive: 39.8 µM [inhibitor, single point]"}
{"smiles": "O=C(C=Cc1ccccc1)c1c[nH]c2ccccc2c1=O", "Potency": "inconclusive: 39.8 µM [inhibitor, single point]"}
{"smiles": "COc1ccccc1OCCSc1nc2ccccc2n1CC(=O)N1CCOCC1", "activity change, negative = inhibition": "inactive: 17.6%"}
{"smiles": "O=C(CC(=O)c1cc(Cl)ccc1O)c1ccccc1", "Potency": "inconclusive: 44.7 µM [inhibitor, single point]"}
{"smiles": "CCN(CC(=O)Nc1cccc(C#N)c1)CC(=O)Nc1cccc(OC)c1", "Potency": "inconclusive: 8.44 µM [inhibitor, single point]"}
{"smiles": "COc1cc(NC(=O)c2c(F)c(F)c(F)c(F)c2F)c(OC)cc1Cl", "Potency": "inconclusive: 15.8 µM [inhibitor, single point]"}
